Results from PubChem BioAssay (Tox21).
This list was built around the results that the source calls inconclusive (neither active nor inactive); the mix of calls is not that of the screen. Potencies of inconclusive entries are left out as doubtful fits. Activity calls are given as the source filed them. The call rests on the fitted dose curve; in most records, active means well fitted activation curve with a large enough effect in the signal ratio in the repeat runs (not every such curve was filed as active); inconclusive means weak or mixed curves, or effect the other way; inactive means no such curve, though single readings can be large or run the other way; the % refers to the signal ratio.

Assay: qHTS assay for small molecule agonists of the antioxidant response element (ARE) signaling pathway (AID 743202)
Conditions: HepG2 ARE-bla reporter, beta-lactamase FRET, 16 h; activation: at 73.3 µM (top of the series) unless noted
Excerpt: U.S. Tox21 Program National Center for Advancing Translational Sciences [NCATS] NIH Chemical Genomics Center [NCGC] U.S. Environmental Protection Agency [EPA] National Institutes of Environmental Health Sciences [NIEHS] National Toxicology Program [NTP] U.S. Food and Drug Administration [FDA] Tox21 Assay Overview: Oxidative stress has been implicated in the pathogenesis of a variety of diseases ranging from cancer to neurodegeneration. The antioxidant response element (ARE) signaling pathway plays an important role in the amelioration of oxidative stress. The CellSensor ARE-bla HepG2 cell line (Invitrogen) can be used for analyzing the Nrf2/antioxidant response signaling pathway. Nrf2 (NF-E2-related factor 2) and Nrf1 are transcription factors that bind to AREs and activate these genes. The CellSensor ARE-bla Hep G2 cell line contains a beta-lactamase reporter gene under control of the Antioxidant Response Element (ARE) stably integrated into HepG2 cells. The activation of the report gene under culture conditions can be detected by fluorescence intensity. This cell line has been used to screen the Tox21 10K compound library to identify agonists that induce oxidative stress.
Tox21 Assay Protocol Summary: The ARE-bla cells were dispensed at 2,000 cells/5 ul/well in 1536-well black wall/clear bottom plates using a Multidrop dispenser. After the assay plates were incubated at a 37 C/5% CO2 incubator for 5 hours, 23 nL of compounds dissolved in DMSO, positive controls or DMSO only was transferred to the assay plate by a pin tool. The plates were incubated at 37 C for 16 hours. After 1 uL of LiveBLAzer B/G FRET substrate was added using a Flying Reagent Dispenser, the plates were incubated at room temperature for 2 hours, and fluorescence intensity was measured by an Envision plate reader.
On the % scale 0 is the no-effect control and ±100 the full control effect; potency means the concentration at half of the fitted maximal effect; tags describe the fitted curve by direction and shape.

| Compound | Potency | activation |
| --- | --- | --- |
| N#CCc1ccccc1[N+](=O)[O-] | inactive |  |
| N#Cc1ccc(C2CCCc3cncn32)cc1 (stereo not given) | inconclusive [falling, partial curve, poor fit] |  |
| c1ccc2c(c1)[nH]c1ccccc12 |  | inconclusive: -22.4% |
| CCCCCCCCCCOC(C)=O |  | inconclusive: -12% |
| O=C(CO)[C@@H](O)[C@H](O)[C@@H](O)CO | inactive |  |
| CN(C)CCC[C@@]1(c2ccc(F)cc2)OCc2cc(C#N)ccc21 | inconclusive [falling, partial curve] |  |
| CC(=O)CCc1ccc(O)cc1 | inactive |  |
| NC(=O)c1ccc([N+](=O)[O-])cc1Cl | inconclusive |  |
| COC(C(=O)O)c1ccccc1 (stereo not given) | inactive |  |
| CCc1ccccc1CC | inactive |  |
| COCCOCCOC | inactive |  |
| NC(CO)C(=O)NNCc1ccc(O)c(O)c1O (stereo not given) |  | inconclusive: -15.3% |
| C[C@H](N)[C@H](O)c1cccc(O)c1 | inactive |  |
| C=CC(OCC)OCC | active: 34 µM |  |
| CN1C(CCl)Nc2cc(Cl)c(S(N)(=O)=O)cc2S1(=O)=O (stereo not given) | active: 26.6 µM |  |
| CC/C=C\CC/C=C/CO |  | inconclusive: -17.2% |
| O=C(O)/C=C/C(=O)O | inconclusive [rising, single point] |  |
| CC(=O)c1cc(C)oc1C | inactive |  |
| CC(C)CCCCCCN | inactive |  |
| COCC(C)OC(C)=O (stereo not given) | inconclusive [rising, single point] |  |

| Compound | Potency | activation |
| --- | --- | --- |
| OCC(O)[C@@H](O)[C@H](O)[C@H](O)CO[C@H]1O[C@H](CO)[C@@H](O)[C@H](O)[C@H]1O (stereo not given in full) | inactive |  |
| Cc1ccccc1N1CCN(CCc2nnc3n2CCCC3)CC1 | inactive |  |
| Cc1c(N)cccc1Cl |  | inconclusive: 14.6% |
| CC/C=C\CC1=C(C)CCC1=O |  | inconclusive: 19.2% |
| C=CC(=O)NCOCC(C)C | inconclusive |  |
| C#CC(C)(CC)OC(=O)c1ccccc1C(=O)O (stereo not given) | inactive |  |
| Clc1ccc2c(c1)Nc1ccccc1S2 | active: 29.8 µM |  |
| C=C(C)C(=O)OCCOC1CC2CC1C1C=CCC21 (stereo not given) | inactive |  |
| CN=C(NC#N)NCCSCc1csc(N=C(N)N)n1 | inactive |  |
| CN1CCN(c2c(F)cc3c(=O)c(C(=O)O)cn4c3c2SCC4)CC1 | inactive |  |
| Cc1ccccc1C=O |  | inconclusive: 20.6% |
| COc1ccc([C@@H]2CC(=O)c3c(O)cc(O[C@@H]4O[C@H](CO[C@@H]5O[C@@H](C)[C@H](O)[C@@H](O)[C@H]5O)[C@@H](O)[C@H](O)[C@H]4O)cc3O2)cc1OC |  | inconclusive: 4.54% |
| CCCO[Si](OCCC)(OCCC)OCCC |  | inconclusive: -17.2% |
| CNC(=O)c1c(I)c(NC(=O)CCCCC(=O)Nc2c(I)c(C(=O)O)c(I)c(C(=O)NC)c2I)c(I)c(C(=O)O)c1I | inactive |  |
| O=C(CCCCC(=O)Nc1c(I)cc(I)c(C(=O)O)c1I)Nc1c(I)cc(I)c(C(=O)O)c1I | inactive |  |
| CC(=O)OC(C)(C)Cc1ccccc1 |  | inconclusive: 0.374% |
| Cc1ccccn1 | inactive |  |
| CCCCCCCCCCCCCCCCCC#N | inactive |  |
| CC(O)COCC(C)O (stereo not given) | inactive |  |

Same assay, conditions: HepG2 ARE-bla reporter, beta-lactamase FRET, 16 h; at 73.3 µM (top of the series)

| Compound | activation |
| --- | --- |
| COc1ccc([C@@H]2CC(=O)c3c(O)cc(O[C@@H]4O[C@H](CO[C@@H]5O[C@@H](C)[C@H](O)[C@@H](O)[C@H]5O)[C@@H](O)[C@H](O)[C@H]4O)cc3O2)cc1OC | inactive: 3.11% |
